Results: publication PMC4336329 (PLoS ONE, 2015)
Among all 310,000 compounds or so, about 14,000 (4.5%) showed an effect of 50% or more. Effects have a minus sign here. The list shows a part of the results.

These molecules were tested against human ether-à-go-go-related gene (hERG) potassium channel (human, UniProt Q12809) (assay: primary screen, population patch clamp on CHO cells stably expressing hERG).
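Further: peak tail current of the secondary pulse compared with the same well before compound.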

human ether-à-go-go-related gene (hERG) potassium channel, sequence (Q12809 whole entry, looked up): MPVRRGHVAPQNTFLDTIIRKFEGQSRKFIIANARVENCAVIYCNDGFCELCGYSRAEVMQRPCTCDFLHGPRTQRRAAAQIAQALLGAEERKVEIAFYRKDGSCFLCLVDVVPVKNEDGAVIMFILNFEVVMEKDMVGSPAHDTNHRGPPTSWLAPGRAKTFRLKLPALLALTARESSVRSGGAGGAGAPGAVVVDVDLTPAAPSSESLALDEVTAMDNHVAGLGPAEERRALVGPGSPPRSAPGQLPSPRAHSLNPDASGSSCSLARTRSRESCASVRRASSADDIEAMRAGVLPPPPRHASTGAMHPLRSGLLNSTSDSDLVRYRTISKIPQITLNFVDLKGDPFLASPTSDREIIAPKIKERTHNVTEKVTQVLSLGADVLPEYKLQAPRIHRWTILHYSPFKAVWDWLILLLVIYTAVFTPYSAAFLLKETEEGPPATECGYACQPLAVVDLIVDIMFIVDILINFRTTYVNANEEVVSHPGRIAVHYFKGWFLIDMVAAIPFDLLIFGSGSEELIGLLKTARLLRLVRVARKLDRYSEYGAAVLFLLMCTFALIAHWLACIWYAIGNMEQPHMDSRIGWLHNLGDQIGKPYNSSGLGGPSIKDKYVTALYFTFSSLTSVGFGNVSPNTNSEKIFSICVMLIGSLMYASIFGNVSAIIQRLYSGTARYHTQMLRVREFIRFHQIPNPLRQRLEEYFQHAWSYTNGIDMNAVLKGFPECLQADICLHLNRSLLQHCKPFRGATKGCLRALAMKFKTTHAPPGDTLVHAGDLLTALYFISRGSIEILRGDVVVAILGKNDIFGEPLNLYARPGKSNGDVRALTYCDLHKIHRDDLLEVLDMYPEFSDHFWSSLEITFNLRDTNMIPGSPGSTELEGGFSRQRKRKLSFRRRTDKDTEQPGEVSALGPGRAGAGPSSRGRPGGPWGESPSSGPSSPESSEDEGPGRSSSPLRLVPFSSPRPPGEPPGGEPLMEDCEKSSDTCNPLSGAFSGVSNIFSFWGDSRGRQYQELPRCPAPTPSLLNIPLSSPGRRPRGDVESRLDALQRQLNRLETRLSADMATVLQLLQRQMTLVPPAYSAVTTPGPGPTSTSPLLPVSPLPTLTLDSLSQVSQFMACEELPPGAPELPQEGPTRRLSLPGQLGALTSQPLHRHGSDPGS

SMILES | hERG current change (%, negative = inhibition) at 10uM
CC1Cc2cc(/C(O)=C3/C(=O)C(=O)N(CCCn4ccnc4)C3c3ccc(Br)cc3)ccc2O1 (stereo not drawn) | 6.07%
COc1ccc(CNC(=O)CC(NC(N)=O)c2ccccc2Cl)cc1OC (stereo not drawn) | 24.4%
O=C(CSc1ccc2c(c1)OCCO2)Nc1ccc(Br)cc1 | -4.08%
Cc1ccc(Nc2nc(N)nc(CSc3nnnn3-c3ccccc3)n2)cc1 | 4.49%
Cc1cccc(NC(=O)[C@@H](CC(C)C)NC(=O)[C@@H]2Cc3ccccc3CN2)c1 | -40.7%
COc1ccc(S(=O)(=O)N2CCCCCC2)cc1NC(=O)c1c2c(nc3ccccc13)CCN(Cc1ccccc1)C2 | -21.8%
O=C(O)CC(NS(=O)(=O)Cc1ccccc1)c1cccc([N+](=O)[O-])c1 (stereo not drawn) | 16.3%
Cc1cc(C)n(-c2ccc(C(=O)O)cc2)n1 | 20.9%
Cc1ccccc1NC1=NC(=S)N(c2ccccc2)C12CCOC(C)(C)C2 (stereo not drawn) | -1.44%
COCCCn1cc(C(=O)c2cc(Br)ccc2O)cc(C#N)c1=O | -8.65%
CCOc1cc(/C=N/Nc2nc(=O)[nH]nc2C)ccc1O | 19.4%
O=C(Nc1ccc2c(c1)OCCO2)c1ccc(Cl)c(S(=O)(=O)N2CCCCC2)c1 | -17.4%
CCC(C)(C(=O)NC1CCCCC1)N(Cc1ccco1)C(=O)c1cnccn1 (stereo not drawn) | -11.3%
CCOC(=O)c1sc2ncnc(OC)c2c1C | 13.3%
Cc1ccc(NC(=O)c2ccco2)c(NC(=O)c2cccs2)c1 | 1.05%
O=C(NCC1c2ccccc2CCN1C(=O)CN1CCOCC1)C1CCCCC1 (stereo not drawn) | -1.72%
COCCNC(=S)N/N=C/c1ccccc1C(=O)O | 5.96%
COc1cccc2c1c(NC(=O)c1cc(C)on1)nn2C | 6.59%
NC(=O)N/N=C/c1cccc(OCc2ccc(F)cc2)c1 | 9.99%
Cc1occc1C(=O)N(C)Cc1nc(-c2ccccc2)no1 | -6.62%
C1COCCO1.CCOc1ccc(N2C(=O)CC(N(CCc3ccc(OC)c(OC)c3)C(=S)Nc3ccccc3)C2=O)cc1 (stereo not drawn) | -4.02%
C=CCOc1cccc(C(=O)N2CCCC(CCC(=O)NCc3ccccc3F)C2)c1 (stereo not drawn) | -12.6%

SMILES | hERG current change (%, negative = inhibition) at 10uM
CCN1CCN(C(=O)c2cc3ccc(OC)cc3[nH]2)CC1 | 0.841%
O=S(=O)(Nc1ccc(-c2cnco2)cc1)c1ccccc1 | 7.62%
COc1ccc(-n2c(SCC(=O)Nc3cc(C)on3)nc3c(c2=O)SCC3)cc1 | 12.1%
Cc1ccc2nc3c(cc2c1)CC1(C(=O)N(C)C(=O)N(C)C1=O)C1COCCN31 (stereo not drawn) | -24.9%
O=C(Nc1ccccc1)c1c(F)cccc1F | 6.44%
CCCNC(=S)N1CCC(C(=O)c2ccc(OC)cc2)CC1 | -17.6%
CCOC(=O)C1=C(C)NC(=O)NC1c1ccc(OC(=O)c2ccco2)c(OC)c1 (stereo not drawn) | 4.37%
CCOc1ccc(-n2c(C)nc3cc(C(=O)NCc4ccco4)ccc32)cc1 | -15.2%
Cc1ccc(S(=O)(=O)N(c2ccccc2)C2CCS(=O)(=O)C2)cc1 (stereo not drawn) | 4.59%
COc1ccc(CCNC(=O)Oc2ccccc2)cc1OC | 14.1%
COCCn1c(=NC(=O)C(C)(C)C)sc2cc([N+](=O)[O-])ccc21 | 2.96%
Cc1cc(C)c(C(N)=O)c(Nc2cccc(Cl)c2C)n1 | -5.35%
CCN1CCN(Cc2ccc(NC(=O)c3cc(NC(=O)c4cnn(-c5ccccc5)c4N)cc(OC)c3)cc2C(F)(F)F)CC1 | 3.56%
CN1CCN(C(=O)c2ccc(-c3cccs3)s2)CC1 | -14.1%
CCc1ccccc1NC(=O)COc1ccc(N2CC(C(N)=O)CC2=O)cc1 (stereo not drawn) | 18.9%
Cc1ccc2cc(C#N)c(N3CCCN(C(=O)c4cnccn4)CC3)nc2c1 | -42.4%
Cc1ccc(-c2ccc(=O)n(CC(=O)NCCC(C)C)n2)cc1 | -3.5%
O=C(NC1CCCCC1)c1cccc(COCC(F)(F)F)c1 | 12.3%
COc1ccc(CCNC(=O)CSc2nncn2N)cc1OC | 8.77%
CCc1ccc(NS(=O)(=O)c2cccs2)cc1 | -12.8%
Cc1ncoc1C(=O)Nc1ncc([N+](=O)[O-])s1 | -12.9%
Cn1c(N)c(C(=O)COC(=O)C2CCCC2)c(=O)n(C)c1=O | -20.6%

SMILES | hERG current change (%, negative = inhibition) at 10uM
CCN(CC)S(=O)(=O)c1ccc(N/N=C(\C)c2ccc(OC)cc2O)nc1 | 17.9%
CCOC(=O)C1(CC2CCCCO2)CCN(Cc2nc(C(C)C)cs2)CC1 (stereo not drawn) | -5.24%
CCCCN(c1ccccc1)c1ncnc2nc[nH]c12 | -21.9%
CCCCCOc1ccc(C(C)(O)C(CN2CCOCC2)c2ccccc2)cc1 (stereo not drawn) | 1.59%
O=C(N/C=C\c1ccccc1)NCc1ccc(Cl)cc1Cl | 8.17%
CC(C)(C)c1cc(CSC(=S)NC2CCS(=O)(=O)C2)c(Br)c(C(C)(C)C)c1 (stereo not drawn) | 2.38%
CCOC(=O)N1CCN(C(=O)c2ccc(Cn3c(=S)[nH]c4cc5c(cc4c3=O)OCO5)cc2)CC1 | 0.805%
C=CCn1c(SCc2nc3sc(C(=O)O)c(C)c3c(=O)[nH]2)nnc1-c1ccccc1 | 12.1%
COc1ccc(OC)c2[nH]c(=O)c(CCNC(=O)c3ccc(Br)o3)cc12 | -18.3%
COc1ccc(CCNC(=O)c2ccc(=O)[nH]c2)cc1 | 12.8%
O=c1cc2c(nn1Cc1ccccc1)-c1ccccc1CC2 | -17.6%
O=C(Nc1cccc(Cl)c1)N1C[C@H]2C[C@@H](C1)c1cccc(=O)n1C2 | 2.8%
Clc1ccc(Cn2ncc3c(N4CCCCC4)ncnc32)c(Cl)c1 | 14.9%
Cc1ccc2cc(CN(C(=O)c3cccs3)c3ccccc3)c(=O)[nH]c2c1 | 21.4%
Cc1ccc(NC(=O)CN2C(=O)S/C(=C\c3cc(C)n(C)c3C)C2=O)cc1 | -1.56%
CCOC(=O)C(=O)C1=C(N2CCOCC2)/C(=C\c2ccc(F)cc2)CC1 | -1.49%
O=C(Nc1c(C(=O)N2CCOCC2)cnn1-c1ccccc1)c1ccc(F)cc1 | 13.8%
CCOC(=O)C1=C(C)NC(C)=C(C(=O)OCC)C1c1cccs1 | 14.4%
C=CCNS(=O)(=O)CC12CCC(CC1=O)C2(C)C (stereo not drawn) | 7.32%
COc1cccc(-n2c(=O)c3sccc3n(CC(=O)NC3CCCC3)c2=O)c1 | 17.9%
CCCOc1ccc(N2C(=O)CC(N(CCc3ccc(S(N)(=O)=O)cc3)C(C)=O)C2=O)cc1 (stereo not drawn) | 14.4%
O=C(CCc1nnc(CCCCc2ccccc2)o1)N1CCCCC1CCO (stereo not drawn) | -1.73%

SMILES | hERG current change (%, negative = inhibition) at 10uM
CCCCCCC1CC(=O)NC(=O)N1 (stereo not drawn) | 12.1%
O=C(O)COc1ccccc1/C=N/NC(=O)CSc1nnc(SCc2ccc(Cl)cc2)s1 | 7.23%
COc1ccc(-c2[nH]ncc2CN2CCC(c3ccncc3)CC2)cc1F | -62.7%
COC(=O)c1ccc(/C=N\N2CCN(Cc3ccc(C)cc3)CC2)cc1 | 9.51%
COc1ccc(-[n+]2c(-c3ccccc3)cc(-c3ccc(C)cc3)cc2-c2ccccc2)cc1.[O-][Cl+3]([O-])([O-])[O-] | -77.7%
CCc1ccc(-c2cc(C(=O)O)c3ccccc3n2)s1 | 16.9%
Cc1ccc2c(c1)N(C(=O)CCC(=O)Nc1ccccc1Cl)CC(C)O2 (stereo not drawn) | -27%
Cc1ccc(CN2C(=O)CCC2C(=O)NC2CC2)cc1 (stereo not drawn) | 10.8%
NS(=O)(=O)c1ccc(N2C(=O)C(=O)/C(=C(/O)c3ccccc3)C2c2ccc(Cl)cc2)cc1 (stereo not drawn) | 18.1%
COc1ccc(C(=O)NCCCOC(=O)c2ccc(OC)cc2)cc1 | -14.6%
Cc1cc2oc(=O)cc(CN3CCN(Cc4ccc5c(c4)OCO5)CC3)c2cc1C | -17.2%
COc1cc(NC(=O)c2ccccc2OCc2ccccc2)cc(OC)c1OC | 23.9%
CCN1CCN(Cc2ccccc2NC(=O)Nc2ccc(C)cc2)CC1 | -0.992%
Cn1cc(CN2CCN(c3ncccn3)CC2)c(-c2cccc(Cl)c2)n1 | -20.5%
COc1ccc(N2C(=O)CN(Cc3cc(OC)c(OC)c(OC)c3)C2=S)cc1 | 16.2%
Cc1cccc(C(=O)NCC(=O)N2CCN(S(=O)(=O)c3cc(C)ccc3C)CC2)c1 | -19.4%
CCC(=O)NC(c1cccs1)c1cc(Cl)c2ccccc2c1O (stereo not drawn) | -20.9%
Cc1nnnn1CC(=O)Nc1cccc([N+](=O)[O-])c1 | 18.6%
CCn1c(=O)c2cc(C(=O)N(C)c3cc(C)ccc3OC)sc2c2ccccc21 | 6.98%
CC(=O)c1ccc(Nc2c([N+](=O)[O-])ccc3nonc23)cc1 | 5.59%
Cc1cccc(OCCNC(=S)NC(=O)c2cccnc2)c1 | 14.4%
